Measurements reported in publication PMC2758247 (Biochemistry, 2009).

Target: T1, HscB from Escherichia coli (Escherichia coli, UniProt P0A6L9 1-171)
T1 sequence (looked up): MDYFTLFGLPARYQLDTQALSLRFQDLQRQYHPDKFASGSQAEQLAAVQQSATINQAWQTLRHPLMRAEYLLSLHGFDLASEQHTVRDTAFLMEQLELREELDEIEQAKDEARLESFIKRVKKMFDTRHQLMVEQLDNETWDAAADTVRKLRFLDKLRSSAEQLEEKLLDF
Experiment: ITC

B1: apo-IscU(D39A) from Escherichia coli (natural protein, UniProt P0ACD4 1-128, looked up)
chain: MAYSEKVIDHYENPRNVGSFDNNDENVGSGMVGAPACGAVMKLQIKVNDEGIIEDARFKTYGCGSAIASSSLVTEWVKGKSLDEAQAIKNTDIAEELELPPVKIHCSILAEDAIKAAIADYKSKREAK
Kd: ~10 µM | stoichiometry N: 1
